Our source for the GI50 and TGI values is PubChem BioAssay (NCI).

The test has as its system NCI-H322M lung. As to the kind of experiment: NCI tumour cell line growth inhibition, 48 h.

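Cells were grown in 96-well plates and exposed to each compound for 48 hours at five concentrations; endpoints were interpolated linearly between bracketing concentrations, or set to the highest concentration if not reached. GI50 is the concentration that inhibits growth by half. Definition used: TGI = concentration required for complete inhibition of growth.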

On to `CNC(=O)c1cccc(N2CCc3c2ccc(NC(=O)Nc2ccc(N4CCN(C)CC4)c(C(F)(F)F)c2)c3F)c1`, for which the GI50 was 5.09 µM and the TGI came out at 9.82 µM.

`O=C(c1ccc(OCCN2CCOCC2)cc1)C1[C@H](c2ccc(Cl)cc2)[C@@H](c2ccccc2)NC12C(=O)Nc1ccc(Cl)cc12` (some centres not stated): the GI50 is 12.3 µM and the TGI was more than 47.3 µM.

On to `OC1CCC(Cn2c(C(F)(F)F)cc3c(Cl)ncnc32)CC1` (configuration not stated), for which the GI50 was 3.84 µM and the TGI turned out to be 13.6 µM.

As to `CN1CCCN(Cc2ccc(C(=O)Nc3cccc(Nc4ccc5c(O)cccc5n4)c3)cc2C(F)(F)F)CC1`, the GI50 is 3.27 µM and the TGI was found to be 11.8 µM.

Consider `COc1ccc(-c2nc3ccc(-c4nnc(SCc5ccccc5)o4)cc3[nH]2)cc1`, for which the GI50 was 3.86 µM and the TGI came out at 17 µM.

Regarding `O=C(c1ccc(OCCN2CCOCC2)cc1)C1[C@H](c2ccc(Cl)cc2)[C@@H](c2ccccc2)NC12C(=O)Nc1ccc(Br)cc12` (some centres not stated), the GI50 was 4.08 µM and the TGI was more than 16.3 µM.
